Laboratory results from the supplement of paper PMC10681739.
± gives the standard deviation of the averaged measurements. Whole data set: some 4,100 sequences, median “arbitrary fluorescence units” near 780, cut for the highest 2% near 22,000. This is one part of the list.

Each sequence was assayed against T1, ETS1 (UniProt P14921) (assay: ETS1 binding intensity (PBM fluorescence), ETS1 alone (arbitrary fluorescence units); higher = stronger binding). Settings: ETS1 concentration 1 nM; RUNX1 concentration 0 nM.
T1 sequence: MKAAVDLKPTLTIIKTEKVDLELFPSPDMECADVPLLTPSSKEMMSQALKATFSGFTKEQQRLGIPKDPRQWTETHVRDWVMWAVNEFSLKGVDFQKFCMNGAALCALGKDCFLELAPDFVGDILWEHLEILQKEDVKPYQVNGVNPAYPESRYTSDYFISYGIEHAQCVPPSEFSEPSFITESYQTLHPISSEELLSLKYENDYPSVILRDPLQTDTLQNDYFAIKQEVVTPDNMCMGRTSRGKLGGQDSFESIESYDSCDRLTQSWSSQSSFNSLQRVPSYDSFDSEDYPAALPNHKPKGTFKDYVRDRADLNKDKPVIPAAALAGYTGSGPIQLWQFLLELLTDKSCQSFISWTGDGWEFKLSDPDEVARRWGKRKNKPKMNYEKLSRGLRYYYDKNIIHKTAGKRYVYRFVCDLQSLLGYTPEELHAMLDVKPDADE
Summary of the method: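 Double-stranded Agilent 4 × 180k arrays held 36-bp genomic probes whose RUNX1 partner site was mutated, and these were incubated with 1 nM full-length recombinant human ETS1 in the absence of RUNX1 under standard PBM protocols. Bound protein was labelled with anti-ETS1 antibody (Cell Signaling Technology 14069) plus an Alexa488-conjugated secondary and read on a GenePix 4400A, with four spots printed per sequence. Binding level is reported as raw spot fluorescence intensity summarised over replicate spots.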
With CAGAAACATCCCTCCTGCCGCCGCTTTGGGGTACCA the ETS1 binding intensity was 554. With TGATGCACTTCCTGAGGGCCCGCGTGTGATAAACAC the ETS1 binding intensity was 8580. CGATTCCGGATTGGTCCAGTTCCAGCGCCGAAGCCC showed an ETS1 binding intensity of 711. CCCACTTCCTGTCTGCTTCCCTCCTCCGCTCAGACC showed an ETS1 binding intensity of 28400. Work on ACCAACCGGAAGTGATCGTGTCGTGGCCGAAGGAGG yielded an ETS1 binding intensity of 32300. In the case of CACCTCAGCTTCCTGAGTAGCTGGGACCCCAGGCGT, the ETS1 binding intensity is reported as 3590. Sequence GACACAAGACAGTTTCCGTCAGTGGATAAGCCCTAA has an ETS1 binding intensity of 2290. Work on CTCATAACCTCTAACTCAACCTCTAACATTTCCTGT yielded an ETS1 binding intensity of 1190. Work on GGCGGGTACTACGGCCCGCCCCACTTCCGGTTGTTG yielded an ETS1 binding intensity of 14400. GAGGCCCAGGATGTGGCTGGAGGCCTGAGGTGGGAC showed an ETS1 binding intensity of 880. For AGACGGGACCGGAAGCCGGGCCGTAGGCGGCCGGGC, the ETS1 binding intensity was 12100. In the case of AGAAAACTACATTCAATTCTCTTTACACAGGATGTT, the ETS1 binding intensity is reported as 661. ACAGATCCAAGGAAGCATATCCAGCAAGCAACTGTT gave an ETS1 binding intensity of 509. In the case of TGCTTAGCAGGAAGTTAGTCTGCCTGAGGTAGCTCC, the ETS1 binding intensity is reported as 2790. Work on ATAACCCCAACTACGGCCAACATCCGAGTGCACTGA yielded an ETS1 binding intensity of 520. For GGGGCCTCTGGTGAACTGGAGAGGAAATGCTGCATT, the ETS1 binding intensity was 514. Sequence GCATCTGGGGTTCAAGTGGCCACTTCCTGCCAGCCG has an ETS1 binding intensity of 4980. Sequence TTACGCAGTGGCTGGAGAGCGTTGGCAGGAACCCAA has an ETS1 binding intensity of 329. With TTGGGGTTCGGGCGTGTCGCGGAGCCCGGATGTAAT the ETS1 binding intensity was 479. With TCTTCAGCAGGAAGACCCTGGTCTAGCCCCAAGCCT the ETS1 binding intensity was 457. GCCCCCGGAAGCTGTCGCCCCGTACGGTGTGTGCTG gave an ETS1 binding intensity of 2320. GGCAGGCTCAGCGGGCCAGGATGAGTTCTAAGCACA gave an ETS1 binding intensity of 314. GACTGGCTGAGGGAGGGGTTTAGGCTTCCGCCCCCA showed an ETS1 binding intensity of 580. In the case of TGCCAAGACTTCCCCGCGGACCCCGTAACAGCTCCA, the ETS1 binding intensity is reported as 394. ATTGTAAATTTCCTTTAAACGTCCCCAGCGCGCTCC was tested, and the ETS1 binding intensity was 1320. In the case of GGCCTGCAGTCCGGGGCCGCTCGGCAGGCGGAAGCC, the ETS1 binding intensity is reported as 328. In the case of GTGCGGAACCTCCATTTTTAAAGGGCCAGGAAGCTT, the ETS1 binding intensity is reported as 528. For ACGAGGTTGCTGTTTCTCCACATCCTCAACAACCTG, the ETS1 binding intensity was 534. For CTCAGTGTGATTAAAGACATGCAAGGCAGGATAGAA, the ETS1 binding intensity was 398. Sequence GCTTGACCCCAACACCTGCTACACTTCCTGAAGACA has an ETS1 binding intensity of 876 ± 88. ACATGGTCTCGCTTCCTGTTTACACCAGAGAAAGCT showed an ETS1 binding intensity of 15000. For CCAAAAAGGAAGGAAACCAGAAAGTCACAGAATGGT, the ETS1 binding intensity was 708. GCAGCTTCCGCGGCCCCCGCCCGGCCTGCAGCGCCA showed an ETS1 binding intensity of 2350. Sequence GGTGCCGTTAAGGCGAGGCTCCTTCTTTCCTGTGAC has an ETS1 binding intensity of 417. TGTGCTTAGAACTCATCCTGGCCCGCTGAGCCTGCC gave an ETS1 binding intensity of 345.
